{"source": "paper PMC4336329", "about": "(PLoS ONE, 2015)", "note": "In all, about 310,000 compounds went through this assay and about 2,200 (0.71%) showed an effect of 50% or more. Effects have a minus sign here. Some of the results follow. Where a SMILES comes first, the peptide text is derived from it. The star is where a group is joined. Boc = CC(C)(C)OC(=O)*; Bn = c1ccc(C*)cc1; NHNH2 = NN*", "data": [{"molecular_target": "human ether-à-go-go-related gene (hERG) potassium channel (human, UniProt Q12809)", "sequence (Q12809 whole entry, looked up)": "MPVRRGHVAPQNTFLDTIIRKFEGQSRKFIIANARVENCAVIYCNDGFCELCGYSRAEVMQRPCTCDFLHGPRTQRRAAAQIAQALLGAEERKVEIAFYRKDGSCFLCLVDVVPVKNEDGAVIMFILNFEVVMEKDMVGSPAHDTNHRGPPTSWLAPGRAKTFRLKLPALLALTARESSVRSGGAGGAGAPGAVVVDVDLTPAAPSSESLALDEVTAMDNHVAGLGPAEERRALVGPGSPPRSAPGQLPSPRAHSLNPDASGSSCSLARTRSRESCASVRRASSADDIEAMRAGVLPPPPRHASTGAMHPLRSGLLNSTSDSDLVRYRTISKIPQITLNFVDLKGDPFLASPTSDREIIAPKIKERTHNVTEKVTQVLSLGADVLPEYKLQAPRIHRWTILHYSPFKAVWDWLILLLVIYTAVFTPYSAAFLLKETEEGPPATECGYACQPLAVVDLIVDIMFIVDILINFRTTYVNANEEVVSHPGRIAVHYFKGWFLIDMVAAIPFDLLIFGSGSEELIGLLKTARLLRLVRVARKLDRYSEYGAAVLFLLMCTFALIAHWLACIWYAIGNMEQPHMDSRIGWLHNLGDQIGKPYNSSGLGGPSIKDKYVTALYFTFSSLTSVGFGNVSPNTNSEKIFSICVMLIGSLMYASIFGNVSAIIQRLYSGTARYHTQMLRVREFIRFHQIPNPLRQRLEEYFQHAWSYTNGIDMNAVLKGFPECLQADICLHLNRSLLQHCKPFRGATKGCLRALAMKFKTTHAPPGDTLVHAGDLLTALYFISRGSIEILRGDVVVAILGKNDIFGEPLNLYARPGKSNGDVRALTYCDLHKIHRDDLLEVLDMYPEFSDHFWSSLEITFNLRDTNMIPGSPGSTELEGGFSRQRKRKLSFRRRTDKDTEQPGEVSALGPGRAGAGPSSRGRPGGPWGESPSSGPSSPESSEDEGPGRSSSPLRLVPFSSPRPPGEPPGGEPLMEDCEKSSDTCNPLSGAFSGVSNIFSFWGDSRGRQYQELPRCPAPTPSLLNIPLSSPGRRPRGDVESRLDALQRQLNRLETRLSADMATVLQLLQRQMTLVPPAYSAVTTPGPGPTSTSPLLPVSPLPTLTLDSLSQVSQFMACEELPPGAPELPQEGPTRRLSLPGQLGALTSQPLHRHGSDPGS", "experiment": "primary screen, population patch clamp on CHO cells stably expressing hERG", "units": {"hERG current change (%, negative = inhibition) at 1uM": "%"}, "values": [{"smiles": "COc1ccc(CCN(C)C(=O)c2ccc(S(=O)(=O)NCc3ccco3)cc2)cc1OC", "hERG current change (%, negative = inhibition) at 1uM": 6.74}, {"smiles": "CCOCCCNC(=S)N1CCCN(c2nc3cc(C)cc(C)c3cc2C#N)CC1", "hERG current change (%, negative = inhibition) at 1uM": -10.5}, {"smiles": "COc1ccc2no[n+]([O-])c2c1", "hERG current change (%, negative = inhibition) at 1uM": 14.2}, {"smiles": "CCN1C(=O)S/C(=C/c2ccc(Oc3ccc([N+](=O)[O-])cn3)c(OC)c2)C1=O", "hERG current change (%, negative = inhibition) at 1uM": 13.4}, {"smiles": "CCOc1ccc(NC(=S)Nc2ccc(Br)cc2Cl)cc1", "hERG current change (%, negative = inhibition) at 1uM": 16.4}, {"smiles": "CNc1ccccc1C(C)(C)c1cc(C)[nH]n1", "hERG current change (%, negative = inhibition) at 1uM": 14}, {"smiles": "CN(C)/C=C/c1onc(-c2ccccc2Cl)c1C#N", "hERG current change (%, negative = inhibition) at 1uM": -0.69}, {"smiles": "O=C(NC1CCCCCC1)c1c(O)c2ccccc2[nH]c1=O", "hERG current change (%, negative = inhibition) at 1uM": 9.91}, {"smiles": "CC(NCCOc1ccccc1F)C(=O)Nc1ccc(S(N)(=O)=O)cc1", "note": "(stereo not shown)", "hERG current change (%, negative = inhibition) at 1uM": 14.4}, {"smiles": "CCOc1ccccc1NC(=O)CSc1nnc2ccc(-c3cccnc3)nn12", "hERG current change (%, negative = inhibition) at 1uM": -0.807}, {"smiles": "CC1(C2CC2)NC(=O)N(CC(=O)Nc2ccc(F)cc2F)C1=O", "note": "(stereo not shown)", "hERG current change (%, negative = inhibition) at 1uM": 6.81}, {"smiles": "CN1CCN(c2ccccc2NC(=O)COc2ccccc2)CC1", "hERG current change (%, negative = inhibition) at 1uM": -15.7}, {"smiles": "O=C(Nc1nc(-c2cc(Cl)sc2Cl)cs1)c1ccccc1", "hERG current change (%, negative = inhibition) at 1uM": 13.5}, {"smiles": "S=C(NCc1cccc(Cl)c1)NC1CCCCC1", "hERG current change (%, negative = inhibition) at 1uM": 4.14}, {"smiles": "Cc1cc(C)nc(NC(=O)/C=C/c2ccc3c(c2)OCO3)c1", "hERG current change (%, negative = inhibition) at 1uM": 10.5}, {"smiles": "Cc1ccc(S(=O)(=O)NNC(=O)c2cccs2)c(C)c1", "hERG current change (%, negative = inhibition) at 1uM": 10.1}, {"smiles": "Cc1ccc(Nc2nnc(SC(C)C(=O)NC3CC3)s2)cc1", "note": "(stereo not shown)", "hERG current change (%, negative = inhibition) at 1uM": 5.27}, {"smiles": "COC(/C(=N/O)c1ccc(Cl)cc1)c1ccccc1", "note": "(stereo not shown)", "hERG current change (%, negative = inhibition) at 1uM": 11.1}, {"smiles": "O=C1c2ccccc2C(Nc2ccc(S(=O)(=O)N3CCCCC3)cc2)N1Cc1ccco1", "note": "(stereo not shown)", "hERG current change (%, negative = inhibition) at 1uM": 0.0423}, {"smiles": "C=C1SC(=Nc2ccccc2Cl)N(C(=O)c2sc3ccccc3c2Cl)C1(C)C", "hERG current change (%, negative = inhibition) at 1uM": 6.88}, {"smiles": "O=C(NCCCN1CCCC1=O)c1ccccc1NS(=O)(=O)c1ccc(Br)cc1", "hERG current change (%, negative = inhibition) at 1uM": 14.1}, {"smiles": "c1ccc(-n2ncc3c(NCc4cccs4)ncnc32)cc1", "hERG current change (%, negative = inhibition) at 1uM": 10.3}, {"smiles": "Cc1ccccc1CN1CCN(CC2CC3C=CC2C3)CC1", "note": "(stereo not shown)", "hERG current change (%, negative = inhibition) at 1uM": 11.9}, {"smiles": "O=C(O)CCn1[nH]c(=O)c2ccccc2c1=O", "hERG current change (%, negative = inhibition) at 1uM": 12.1}, {"smiles": "O=c1[nH]c(-c2ccncc2)nc2ccccc12", "hERG current change (%, negative = inhibition) at 1uM": -1.9}, {"smiles": "Cc1ccc(S(=O)(=O)N2CCC(C(=O)OCC(=O)NCCc3ccccc3)CC2)cc1C", "hERG current change (%, negative = inhibition) at 1uM": 4.85}, {"smiles": "COc1ccc(/C=C(\\NC(=O)c2ccc(C)cc2)C(=O)N2CCCCC2)cc1", "hERG current change (%, negative = inhibition) at 1uM": -5.56}, {"smiles": "Cc1ccc(N2CCN(c3ncccc3[N+](=O)[O-])CC2)c(C)c1", "hERG current change (%, negative = inhibition) at 1uM": 17.2}, {"smiles": "Cc1ccc(-n2ncc3c(=O)n(CC(N)=O)cnc32)cc1C", "hERG current change (%, negative = inhibition) at 1uM": 19.1}, {"smiles": "Cc1ccc(/C(N)=N/OC(=O)c2cccc(F)c2)cc1", "hERG current change (%, negative = inhibition) at 1uM": 5.54}, {"smiles": "CCOC(=O)N1CCC(NC(=O)CCc2nc(-c3ccc(C)cc3)no2)CC1", "hERG current change (%, negative = inhibition) at 1uM": 1.99}, {"smiles": "N#Cc1cc2cc3c(cc2nc1SCC(=O)N1CCCC1)OCCO3", "hERG current change (%, negative = inhibition) at 1uM": 11.5}, {"smiles": "COc1ccccc1NC(=S)N(CCc1ccc(OC)c(OC)c1)Cc1ccccn1", "hERG current change (%, negative = inhibition) at 1uM": -9.66}, {"smiles": "CCC(=O)N1CCN(c2ccc(NC(=S)NC(=O)C(C)C)cc2)CC1", "hERG current change (%, negative = inhibition) at 1uM": 7.03}, {"smiles": "O=C(CSc1nnc2sc3ccccc3n12)NCc1ccc2c(c1)OCO2", "hERG current change (%, negative = inhibition) at 1uM": 4.29}, {"smiles": "CCC(C)(C)n1nnnc1C(c1cc2cc(OC)c(OC)cc2[nH]c1=O)N1CCc2ccccc21", "note": "(stereo not shown)", "hERG current change (%, negative = inhibition) at 1uM": 1.46}, {"smiles": "Cc1ccc(N2C(=O)c3ccccc3C2Nc2cccnc2)nc1", "note": "(stereo not shown)", "hERG current change (%, negative = inhibition) at 1uM": 3.94}, {"smiles": "CCCCC1CN2CCc3c([nH]c4ccccc34)C2(C)C1.Cl", "note": "(stereo not shown)", "hERG current change (%, negative = inhibition) at 1uM": 0.159}, {"smiles": "O=C(CSc1nc2ccc([N+](=O)[O-])cc2[nH]1)c1ccc2ccccc2c1", "hERG current change (%, negative = inhibition) at 1uM": 5.08}, {"smiles": "C=CCn1c(O)c(C(CC)=NCCc2ccccc2)c(=O)[nH]c1=O", "hERG current change (%, negative = inhibition) at 1uM": -19.6}, {"smiles": "CC(C)CC(NC(=O)C(COCc1ccccc1)NC(=O)OC(C)(C)C)C(=O)NN", "note": "(stereo not shown) (Boc-Ser(Bn)-Leu-NHNH2; configuration not given here)", "hERG current change (%, negative = inhibition) at 1uM": 18.6}, {"smiles": "N#CCC(=O)Nc1ccc(C(=O)NCc2cccc(Cl)c2)cc1", "hERG current change (%, negative = inhibition) at 1uM": 9.55}, {"smiles": "CC(OC(=O)c1ccc(Cl)c(S(=O)(=O)N2CCOCC2)c1)C(=O)Nc1ccc(S(N)(=O)=O)cc1", "note": "(stereo not shown)", "hERG current change (%, negative = inhibition) at 1uM": 15.1}]}]}
